The values below come from PMC12136788.

The list shows a part of the results.

T1: UNK ZnF1-3 (human, UniProt Q9C0B0 31-174)
T1 sequence: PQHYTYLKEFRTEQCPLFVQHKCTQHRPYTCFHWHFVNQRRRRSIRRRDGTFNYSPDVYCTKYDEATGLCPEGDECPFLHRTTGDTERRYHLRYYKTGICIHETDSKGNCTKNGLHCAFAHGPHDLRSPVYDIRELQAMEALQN

B1: chr19:16212804:16212805:+_ENSG00000167460_ENST00000300933|hu_mus|hu_hu_hu_mus_False|8_28 (ssRNA)
RNA: GGGAGUUCUACAGUCCGACGAUCAACAAUUCUGGAGUGAAGGAAAGAUGUAACAUGGAACAGCAUUAAAGCUCAGUCAGAAGGCACAUGGGCAACAAUGAUCACCCCCCAAGCAUUGCUUGGAAUGUGCUUGAGAAAUCUGUUCAACAGAGGAUUGAGCAUCA
B2: chr4:120564514:120564515:+_ENSMUSG00000032890_ENSMUST00000071093|mus_mus|FALSE|FALSE (ssRNA)
RNA: GGGAGUUCUACAGUCCGACGAUCAAAGAAAAAGACAAGACAGAAAAGCAAGUGGAGACCAUAAGACAACAAGGCAGGGACUAAGCAAGGCCCACCAGUGGCCACAUCCCCUAUUUCCACCCCUGGAGAUUCCAUGGGCAAGAACAACAGAGGAUUGAGCAUCA
B3: chr1:46159212:46159213:+_ENSG00000159596_ENST00000372025|hu_mus|hu_hu_hu_mus_True|28_98 (ssRNA)
RNA: GGGAGUUCUACAGUCCGACGAUCUCUGAUCCCUCCCAAGAAAGAUAGGAAACCGGCUCCAUAAGCCAUCUGAGUGAAAGCUAGGACGGGGAUAUAAGACUUUGUUAUCAGCAUGACAAGUGGGGGAGCAGUAAAGGGGAUUAACAACAGAGGAUUGAGCAUCA
B4: chrX:98862621:98862622:+_ENSMUSG00000034160_ENSMUST00000044475|mus_hu|mus_mus_mus_hu_False|8_68 (ssRNA)
RNA: GGGAGUUCUACAGUCCGACGAUCCUGCAUCUCCUUUAGAGUGUUUCCCAUAUUAGAGUAGGCAUCAGCAAAUGUAGGACUGAUUCGAAUAGCCUCCUUAUAAUGCAUCAGAGCUUCCUGCAGUUUUCCCUGCUGUUGCAGUACCAACAGAGGAUUGAGCAUCA
B5: chr1:154966221:154966222:+_ENSMUSG00000042751_ENSMUST00000043313|mus_hu|FALSE|FALSE (ssRNA)
RNA: GGGAGUUCUACAGUCCGACGAUCACUUGAAUAUCAUUUUUUAUUAAUGAAUUGAUUUCCAUAAAGCAAAUCUUACUCUUAAAAUGGCAGAUUAUGUGAUCAAAAAGCGAUUCAAAAAAGCUUCCCCCUCCUCAUGCCAACCCUCAACAGAGGAUUGAGCAUCA
B6: 46070444_46083837_1657_CDS_ENSG00000136152_ENST00000349995|human|control|control (ssRNA)
RNA: GGGAGUUCUACAGUCCGACGAUCUUCUGUUGAACCAGAUUUUGUCAGACUGUUAGACUCUCCUUCUUCUAAGUGAACAUCUGAAAAUGAAGCUUCUGAAGGUACCUUCUUCUGUUCAUCUUUCAAACUCUGUGCAAUCUGCUCCAACAGAGGAUUGAGCAUCA

The target in this assay is T1, UNK ZnF1-3. Briefly: nsRBNS (natural sequence RNA bind-n-seq); RBNS binding buffer (assumed for nsRBNS): 25 mM Tris pH 7.5, 150 mM KCl, 3 mM MgCl2, 0.01% Triton X-100, 500 ug/ml BSA, 20 U/ml SUPERase-In, 4 C; UNK is unkempt and MSI1 is Musashi-1; names of the RNAs are library labels; protein concentration not given here; high values mean tight binding.
With B1, the binding signal was 1.15 enrichment R.

For B2, the binding signal is 1.41 enrichment R.

For the molecule B3, the binding signal came out at 1.76 enrichment R.

Molecule B4 registered a binding signal of 1.12 enrichment R.

B5 registered a binding signal of 1.69 enrichment R.

With B6, the binding signal was found to be 0.578 enrichment R.
